Assay results: the supplement of paper PMC8728848
Some of the results follow.

Columns and labels:
Assay in all cases: glycan array binding signal (z-score within array); higher = stronger binding
Settings in all cases: glycan notation: IUPAC condensed, linker removed
[1] = biological target: Gal(b1-3)GlcNAc(b1-6)GalNAc
How it was run: (§1)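 From the Consortium for Functional Glycomics database, 3228 arrays were curated, keeping only those whose protein sequence was available. Binding is given as a within-array Z-score averaged across arrays sharing a protein sequence and across linkers. Negative Z-scores can be read as non-binding.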

[2] = biological target: Gal(b1-3)GlcNAc(b1-6)[Gal(b1-3)]GalNAc
How it was run: as §1

[3] = biological target: Gal(b1-3)GlcNAc6S
How it was run: as §1

[4] = biological target: Gal(b1-3)[Fuc(a1-4)]GlcNAc
How it was run: as §1

[5] = biological target: Gal(b1-3)[Fuc(a1-4)]GlcNAc(b1-2)Man
How it was run: as §1

[6] = biological target: Gal(b1-3)[Fuc(a1-4)]GlcNAc(b1-2)Man(a1-3)[Gal(b1-3)[Fuc(a1-4)]GlcNAc(b1-2)Man(a1-6)]Man(b1-4)GlcNAc(b1-4)[Fuc(a1-6)]GlcNAc
How it was run: as §1

[7] = biological target: Gal(b1-3)[Fuc(a1-4)]GlcNAc(b1-3)Gal(b1-3)[Fuc(a1-4)]GlcNAc
How it was run: as §1

[8] = biological target: Gal(b1-3)[Fuc(a1-4)]GlcNAc(b1-3)Gal(b1-4)[Fuc(a1-3)]GlcNAc
How it was run: as §1

[9] = biological target: Gal(b1-3)[Fuc(a1-4)]GlcNAc(b1-6)GalNAc
How it was run: as §1

[10] = biological target: Gal(b1-3)[GlcNAc(b1-6)]GalNAc
How it was run: as §1

[11] = biological target: Gal(b1-3)[Neu5Ac(a2-6)]GalNAc
How it was run: as §1

[12] = biological target: Gal(b1-3)[Neu5Ac(a2-6)]GlcNAc(b1-4)Gal(b1-4)Glc
How it was run: as §1

[13] = biological target: Gal(b1-3)[Neu5Ac(b2-6)]GalNAc
How it was run: as §1

[14] = biological target: Gal(b1-4)Gal
How it was run: as §1

[15] = biological target: Gal(b1-4)GalNAc(a1-3)[Fuc(a1-2)]Gal(b1-4)GlcNAc
How it was run: as §1

[16] = biological target: Gal(b1-4)GalNAc(b1-3)[Fuc(a1-2)]Gal(b1-4)GlcNAc
How it was run: as §1

[17] = biological target: Gal(b1-4)Glc
How it was run: as §1

[18] = biological target: Gal(b1-4)Glc6S
How it was run: as §1

[19] = biological target: Gal(b1-4)GlcNAc
How it was run: as §1

[20] = biological target: Gal(b1-4)GlcNAc(a1-6)Gal(b1-4)GlcNAc
How it was run: as §1

[21] = biological target: Gal(b1-4)GlcNAc(b1-2)Man
How it was run: as §1

[22] = biological target: Gal(b1-4)GlcNAc(b1-2)Man(a1-3)Man(b1-4)GlcNAc(b1-4)GlcNAc
How it was run: as §1

[23] = biological target: Gal(b1-4)GlcNAc(b1-2)Man(a1-3)[Gal(b1-4)GlcNAc(b1-2)Man(a1-6)]Man(b1-4)GlcNAc(b1-4)GlcNAc
How it was run: as §1

[24] = biological target: Gal(b1-4)GlcNAc(b1-2)Man(a1-3)[Gal(b1-4)GlcNAc(b1-2)Man(a1-6)]Man(b1-4)GlcNAc(b1-4)[Fuc(a1-6)]GlcNAc
How it was run: as §1

[25] = biological target: Gal(b1-4)GlcNAc(b1-2)Man(a1-3)[Gal(b1-4)GlcNAc(b1-2)Man(a1-6)][Gal(b1-4)GlcNAc(b1-4)]Man(b1-4)GlcNAc(b1-4)[Fuc(a1-6)]GlcNAc
How it was run: as §1

[26] = biological target: Gal(b1-4)GlcNAc(b1-2)Man(a1-3)[Gal(b1-4)GlcNAc(b1-2)Man(a1-6)][GlcNAc(b1-4)]Man(b1-4)GlcNAc(b1-4)[Fuc(a1-6)]GlcNAc
How it was run: as §1

[27] = biological target: Gal(b1-4)GlcNAc(b1-2)Man(a1-3)[GlcNAc(b1-2)Man(a1-6)]Man(b1-4)GlcNAc(b1-4)GlcNAc
How it was run: as §1

[28] = biological target: Gal(b1-4)GlcNAc(b1-2)Man(a1-3)[GlcNAc(b1-4)][Gal(b1-4)GlcNAc(b1-2)Man(a1-6)]Man(b1-4)GlcNAc(b1-4)GlcNAc
How it was run: as §1

[29] = biological target: Gal(b1-4)GlcNAc(b1-2)Man(a1-3)[Man(a1-6)]Man(b1-4)GlcNAc(b1-4)GlcNAc
How it was run: as §1

[30] = biological target: Gal(b1-4)GlcNAc(b1-2)Man(a1-6)Man(b1-4)GlcNAc(b1-4)GlcNAc
How it was run: as §1

[31] = biological target: Gal(b1-4)GlcNAc(b1-2)Man(a1-6)[GlcNAc(b1-2)Man(a1-3)]Man(b1-4)GlcNAc(b1-4)GlcNAc
How it was run: as §1

[32] = biological target: Gal(b1-4)GlcNAc(b1-2)Man(a1-6)[Man(a1-3)]Man(b1-4)GlcNAc(b1-4)GlcNAc
How it was run: as §1

[33] = biological target: Gal(b1-4)GlcNAc(b1-2)[Gal(b1-4)GlcNAc(b1-4)]Man(a1-3)[Gal(b1-4)GlcNAc(b1-2)Man(a1-6)]Man(b1-4)GlcNAc(b1-4)GlcNAc
How it was run: as §1

[34] = biological target: Gal(b1-4)GlcNAc(b1-2)[Gal(b1-4)GlcNAc(b1-4)]Man(a1-3)[Gal(b1-4)GlcNAc(b1-2)[Gal(b1-4)GlcNAc(b1-6)]Man(a1-6)]Man(b1-4)GlcNAc(b1-4)GlcNAc
How it was run: as §1

[35] = biological target: Gal(b1-4)GlcNAc(b1-2)[Gal(b1-4)GlcNAc(b1-4)]Man(a1-3)[GlcNAc(b1-4)][Gal(b1-4)GlcNAc(b1-2)Man(a1-6)]Man(b1-4)GlcNAc(b1-4)GlcNAc
How it was run: as §1

[36] = biological target: Gal(b1-4)GlcNAc(b1-2)[Gal(b1-4)GlcNAc(b1-4)]Man(a1-3)[GlcNAc(b1-4)][Gal(b1-4)GlcNAc(b1-2)[Gal(b1-4)GlcNAc(b1-6)]Man(a1-6)]Man(b1-4)GlcNAc(b1-4)GlcNAc
How it was run: as §1

[37] = biological target: Gal(b1-4)GlcNAc(b1-2)[Gal(b1-4)GlcNAc(b1-6)]Man(a1-6)[Gal(b1-4)GlcNAc(b1-2)Man(a1-3)]Man(b1-4)GlcNAc(b1-4)GlcNAc
How it was run: as §1

[38] = biological target: Gal(b1-4)GlcNAc(b1-2)[Gal(b1-4)GlcNAc(b1-6)]Man(a1-6)[Gal(b1-4)GlcNAc(b1-2)Man(a1-3)]Man(b1-4)GlcNAc(b1-4)[Fuc(a1-6)]GlcNAc
How it was run: as §1

[39] = biological target: Gal(b1-4)GlcNAc(b1-2)[Gal(b1-4)GlcNAc(b1-6)]Man(a1-6)[GlcNAc(b1-4)][Gal(b1-4)GlcNAc(b1-2)Man(a1-3)]Man(b1-4)GlcNAc(b1-4)GlcNAc
How it was run: as §1

[40] = biological target: Gal(b1-4)GlcNAc(b1-2)[Gal(b1-4)GlcNAc(b1-6)]Man(a1-6)[GlcNAc(b1-4)][Gal(b1-4)GlcNAc(b1-2)[Gal(b1-4)GlcNAc(b1-4)]Man(a1-3)]Man(b1-4)GlcNAc(b1-4)[Fuc(a1-6)]GlcNAc
How it was run: as §1

[41] = biological target: Gal(b1-4)GlcNAc(b1-3)Gal(b1-3)GalNAc
How it was run: as §1

[42] = biological target: Gal(b1-4)GlcNAc(b1-3)Gal(b1-3)GlcNAc
How it was run: as §1

[43] = biological target: Gal(b1-4)GlcNAc(b1-3)Gal(b1-4)Glc
How it was run: as §1

[44] = biological target: Gal(b1-4)GlcNAc(b1-3)Gal(b1-4)GlcNAc
How it was run: as §1

[45] = biological target: Gal(b1-4)GlcNAc(b1-3)Gal(b1-4)GlcNAc(b1-2)Man(a1-3)[Gal(b1-4)GlcNAc(b1-3)Gal(b1-4)GlcNAc(b1-2)Man(a1-6)]Man(b1-4)GlcNAc(b1-4)GlcNAc
How it was run: as §1

B1: CrataBL (Crataeva tapia), C0HJA4 (protein)
chain: AILTGVPYYILPSTSRAGFSPDNLRKNTSQLSCPLDLITQLRFPRRIGVPVIFTPQNSSLKVVPLSHNLNIHTCSDLWFCPESKIWTVKSSLTHGGSVVTTGGTFRSLGSWFRIERHGDSYKLVHCPRGSTPCRDVGIETVGGGGRRYLAPRDRPLAVRFTRASG
[1]
  glycan array binding signal (z-score): -0.326
[2]
  glycan array binding signal (z-score): -0.182
[3]
  glycan array binding signal (z-score): 0.373
[4]
  glycan array binding signal (z-score): -0.403
[5]
  glycan array binding signal (z-score): 0.482
[6]
  glycan array binding signal (z-score): -0.411
[7]
  glycan array binding signal (z-score): -0.412
[8]
  glycan array binding signal (z-score): -0.523
[9]
  glycan array binding signal (z-score): -0.066
[10]
  glycan array binding signal (z-score): -0.234
[11]
  glycan array binding signal (z-score): -0.371
[12]
  glycan array binding signal (z-score): -0.353
[13]
  glycan array binding signal (z-score): -0.333
[14]
  glycan array binding signal (z-score): 0.304
[15]
  glycan array binding signal (z-score): -0.514
[16]
  glycan array binding signal (z-score): -0.489
[17]
  glycan array binding signal (z-score): -0.482
[18]
  glycan array binding signal (z-score): 1.84
[19]
  glycan array binding signal (z-score): -0.256
[20]
  glycan array binding signal (z-score): -0.511
[21]
  glycan array binding signal (z-score): -0.229
[22]
  glycan array binding signal (z-score): -0.436
[23]
  glycan array binding signal (z-score): -0.486
[24]
  glycan array binding signal (z-score): -0.242
[25]
  glycan array binding signal (z-score): -0.476
[26]
  glycan array binding signal (z-score): -0.533
[27]
  glycan array binding signal (z-score): -0.546
[28]
  glycan array binding signal (z-score): -0.484
[29]
  glycan array binding signal (z-score): -0.309
[30]
  glycan array binding signal (z-score): -0.418
[31]
  glycan array binding signal (z-score): -0.399
[32]
  glycan array binding signal (z-score): -0.356
[33]
  glycan array binding signal (z-score): -0.346
[34]
  glycan array binding signal (z-score): -0.546
[35]
  glycan array binding signal (z-score): -0.465
[36]
  glycan array binding signal (z-score): -0.343
[37]
  glycan array binding signal (z-score): -0.495
[38]
  glycan array binding signal (z-score): -0.39
[39]
  glycan array binding signal (z-score): -0.358
[40]
  glycan array binding signal (z-score): -0.523
[41]
  glycan array binding signal (z-score): -0.013
[42]
  glycan array binding signal (z-score): -0.453
[43]
  glycan array binding signal (z-score): -0.096
[44]
  glycan array binding signal (z-score): -0.426
[45]
  glycan array binding signal (z-score): 1.04
